In patent publication US8685954B2, “Methods and compositions for treating cancer using proteasome inhibitors” (priority 2002, dated 2014):

How the values were obtained:
MM.1S cells = assay: Cell adhesion-mediated drug resistance (CAM-DR), MM.1S cells on fibronectin, MTT; format: cell-based, Human; details: doxorubicin 100-200 ng/ml 24 h; wells with versus without fibronectin
[1] = tested on: MM cells isolated from a patient who had relapsed following treatment with PS-341; details: MM cells of patient relapsed after PS-341

`COc1cccc2c1C(=O)c1c(O)c3c(c(O)c1C2=O)C[C@@](O)(C(=O)CO)C[C@@H]3O[C@H]1C[C@H](N)[C@H](O)[C@H](C)O1` [doxorubicin] was tested. Which “Sensitivity of MM.1S cells to doxorubicin with fibronectin” value (MM.1S cells) did it give?
Its value is “less sensitive”.

What about the “Sensitivity to doxorubicin monotherapy in vitro” value [1] of the same molecule?
The value was “low sensitivity”.
